{"source": "the supplement of paper PMC3334620", "note": "Whole data set: some 33,000 sequences, median “E-score (-0.5 to 0.5)” near -0.021, cut for the highest 2% near 0.32. The list shows a part of the results."}
{"target": "T1, Zap1 (UniProt P47043)", "T1 sequence": "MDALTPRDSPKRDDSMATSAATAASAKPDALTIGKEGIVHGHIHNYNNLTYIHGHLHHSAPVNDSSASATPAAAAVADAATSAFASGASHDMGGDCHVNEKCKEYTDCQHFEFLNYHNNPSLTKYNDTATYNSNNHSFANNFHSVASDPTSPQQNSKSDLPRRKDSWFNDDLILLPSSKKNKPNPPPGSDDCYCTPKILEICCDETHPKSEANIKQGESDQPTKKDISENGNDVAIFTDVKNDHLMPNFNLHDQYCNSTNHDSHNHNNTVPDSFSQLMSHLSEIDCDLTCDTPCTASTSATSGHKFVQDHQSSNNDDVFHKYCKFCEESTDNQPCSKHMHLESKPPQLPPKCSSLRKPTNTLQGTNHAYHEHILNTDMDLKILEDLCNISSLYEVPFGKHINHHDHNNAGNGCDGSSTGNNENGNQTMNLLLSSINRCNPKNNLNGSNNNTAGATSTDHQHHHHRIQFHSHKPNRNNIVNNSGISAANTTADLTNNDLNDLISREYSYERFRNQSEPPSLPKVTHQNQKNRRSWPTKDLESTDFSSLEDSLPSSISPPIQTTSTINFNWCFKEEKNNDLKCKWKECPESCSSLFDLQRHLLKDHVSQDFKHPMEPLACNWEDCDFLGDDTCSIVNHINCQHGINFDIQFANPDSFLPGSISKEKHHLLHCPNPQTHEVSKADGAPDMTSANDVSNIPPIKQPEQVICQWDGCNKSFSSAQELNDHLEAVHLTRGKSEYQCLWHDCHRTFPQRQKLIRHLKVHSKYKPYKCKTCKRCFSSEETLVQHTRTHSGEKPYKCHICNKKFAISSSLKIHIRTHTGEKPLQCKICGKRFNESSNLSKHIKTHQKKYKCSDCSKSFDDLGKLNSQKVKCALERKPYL", "experiment": "PBM E-score (8-mer binding enrichment) (E-score (-0.5 to 0.5)); higher = stronger / more preferred TF binding; most listed sequences are background and not binding sites", "details": "protein concentration: 200 nM; construct: GST-full length", "procedure,_shortened": "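Detection of bound protein used fluorescent anti-GST, with scans normalised by masliner. The proteins were GST-tagged yeast transcription factors applied at about 100-200 nM to universal all-10-mer Agilent arrays made double-stranded by primer extension. Each ungapped eight-base word, pooled with its reverse complement, was scored with an E-score from the Universal PBM Analysis Suite.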"}
{"sequence": "ACCTCACG", "PBM E-score": 0.195}
{"sequence": "CGTGAACC", "PBM E-score": -0.0718}
{"sequence": "AGTTCGAA", "PBM E-score": 0.0772}
{"sequence": "CTTCGGTA", "PBM E-score": 0.0495}
{"sequence": "GCCTCTTA", "PBM E-score": -0.0893}
{"sequence": "CTCTCAAC", "PBM E-score": -0.0913}
{"sequence": "GTAACAAA", "PBM E-score": 0.226}
{"sequence": "CACTGACC", "PBM E-score": 0.133}
{"sequence": "CGATTACC", "PBM E-score": 0.169}
{"sequence": "AGGCTAAG", "PBM E-score": -0.201}
{"sequence": "TCAGAGAA", "PBM E-score": -0.116}
{"sequence": "AGACAAAT", "PBM E-score": 0.0677}
{"sequence": "CTTCGCTA", "PBM E-score": -0.156}
{"sequence": "ACCGTATC", "PBM E-score": 0.152}
{"sequence": "CATATAAG", "PBM E-score": 0.133}
{"sequence": "CTTCATAA", "PBM E-score": 0.1}
{"sequence": "CCACTAGG", "PBM E-score": -0.0283}
{"sequence": "AATACCGC", "PBM E-score": 0.146}
{"sequence": "GGGTCCTA", "PBM E-score": 0.0382}
{"sequence": "ACTTCCAT", "PBM E-score": -0.0676}
{"sequence": "CATTGACC", "PBM E-score": 0.0717}
{"sequence": "ATTTTCCA", "PBM E-score": 0.108}
{"sequence": "CGACAACA", "PBM E-score": 0.0946}
{"sequence": "GGTCGCAC", "PBM E-score": -0.0707}
{"sequence": "GAGCTACC", "PBM E-score": -0.0317}
{"sequence": "CCAATAAG", "PBM E-score": 0.0828}
{"sequence": "GCTGTGCC", "PBM E-score": -0.0965}
{"sequence": "TGCCCGAA", "PBM E-score": -0.141}
{"sequence": "GAGAAGCC", "PBM E-score": -0.33}
{"sequence": "ACGCCTTA", "PBM E-score": -0.182}
{"sequence": "CCACGGAA", "PBM E-score": -0.00181}
{"sequence": "GAAGTCGC", "PBM E-score": -0.182}
{"sequence": "GTATCCGA", "PBM E-score": -0.00814}
{"sequence": "ATGGGGCC", "PBM E-score": -0.246}
{"sequence": "AACAGAGA", "PBM E-score": -0.144}
{"sequence": "CTATGTTC", "PBM E-score": -0.0472}
{"sequence": "CAATGAAG", "PBM E-score": 0.0431}
{"sequence": "AATAGTAT", "PBM E-score": 0.186}
{"sequence": "CCATCAAC", "PBM E-score": -0.0436}
{"sequence": "GCCAGCGA", "PBM E-score": -0.128}
{"sequence": "AATAAGTC", "PBM E-score": -0.159}
{"sequence": "AGACCACT", "PBM E-score": 0.191}
{"sequence": "ACACTAGC", "PBM E-score": -0.123}
{"sequence": "AACGGTTA", "PBM E-score": 0.397}
{"sequence": "AACTTATT", "PBM E-score": 0.174}
{"sequence": "AAGTATCC", "PBM E-score": -0.0723}
{"sequence": "AACTGTAG", "PBM E-score": 0.0607}
{"sequence": "CGGACACG", "PBM E-score": -0.0774}
{"sequence": "AAATACAA", "PBM E-score": 0.219}
{"sequence": "CGGGGGTC", "PBM E-score": -0.0576}
{"sequence": "CACTTCGC", "PBM E-score": -0.196}
{"sequence": "GCCTGTAC", "PBM E-score": -0.185}
{"sequence": "CGACGAGA", "PBM E-score": -0.29}
{"sequence": "CCGGCTCG", "PBM E-score": -0.22}
{"sequence": "GGGAACCC", "PBM E-score": 0.284}
{"sequence": "CATGAAAA", "PBM E-score": 0.276}
{"sequence": "TACATCAA", "PBM E-score": 0.0714}
{"sequence": "AGATTTGG", "PBM E-score": -0.094}
{"sequence": "CCGACTCG", "PBM E-score": -0.171}
{"sequence": "CACAACCA", "PBM E-score": 0.343}
{"sequence": "GAGTGGGC", "PBM E-score": -0.143}
{"sequence": "AATTCTGC", "PBM E-score": -0.061}
{"sequence": "AAGCGGCG", "PBM E-score": -0.171}
{"sequence": "AACACTGA", "PBM E-score": 0.213}
{"sequence": "GCAGAGCC", "PBM E-score": -0.296}
{"sequence": "CTATTGCC", "PBM E-score": -0.25}
{"sequence": "AACTCATC", "PBM E-score": 0.0136}
{"sequence": "GGGCTAAC", "PBM E-score": -0.067}
{"sequence": "CGGCGTGC", "PBM E-score": -0.264}
{"sequence": "GTAATCCA", "PBM E-score": -0.0149}
{"sequence": "CCGTTCAA", "PBM E-score": -0.0212}
{"sequence": "AACGGAAG", "PBM E-score": -0.121}
{"sequence": "AGAATCAA", "PBM E-score": -0.0486}
{"sequence": "CCGAAACC", "PBM E-score": 0.0667}
{"sequence": "ACTCCATG", "PBM E-score": -0.248}
{"sequence": "CACGCTAG", "PBM E-score": -0.21}
{"sequence": "GTGCTACA", "PBM E-score": -0.104}
{"sequence": "CTTGGCCC", "PBM E-score": -0.21}
{"sequence": "CATCTGCA", "PBM E-score": -0.172}
{"sequence": "GGATCCCC", "PBM E-score": -0.152}
{"sequence": "GTTGCCCA", "PBM E-score": -0.0028}
{"sequence": "AGCTTGTG", "PBM E-score": 0.0149}
{"sequence": "TTCGAAAA", "PBM E-score": 0.151}
{"sequence": "AGGATGAG", "PBM E-score": -0.0639}
{"sequence": "TAGCAGAA", "PBM E-score": 0.158}
{"sequence": "ATTTAGCA", "PBM E-score": 0.0848}
